Results: a collection of fitness landscapes (doi:10.1016/j.celrep.2020.107928)
Whole data set: some 81,000 sequences, median “one-hybrid fitness for binding parS DNA” near -0.17, cut for the highest 2% near 0.51. This is one part of the list.

B1: Caulobacter ParB omega fusion; a variant is named by its letters at X, in order, B8GW30 (parent)
chain: MESVVVGEPGMSEGRRGLGRGLSALLGEVDAAPAQAPGEQLGGSREAPIEILQRNPDQPRRTFREEDLEDLSNSIREKGVLQPILVRPSPDTAGEYQIVAGERAWRAAQRAGLKTVPIMVRELDDLAVLEIGIIENVQRADLNVLEEALSYKVLMEKFERTQENIAQTIGKSXSHVANXMRLLXLPDEVQSYLVSGELTAXHARAIAAAADPVALAKQIIEGGLSVRETEALARKAPNLSAGKSKGGRPPRVKDTDTQALESDLSSVLGLDVSIDHRGSTGTLTITYATLEQLDDLCNRLTRGI

Variants of: B1
Assay: one-hybrid fitness for binding parS DNA (scaled: cognate 1, non-cognate 0); higher = stronger binding
Settings: with parS DNA site
Summary of the method: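 Values were rescaled so that cognate is 1 and non-cognate is 0. Each is a fitness, the log change in a variant's read ratio to wild type from Illumina reads of plasmids before and after selection, with three replicate libraries pooled and variants under 10 reads dropped. Selection of the Caulobacter ParB libraries, four specificity codons randomised, used E. coli USO with a HIS3 reporter, site 19 bp from the promoter, on M9-minus-histidine with 0.1 mM IPTG and 5 mM 3-AT for 48 hours at 37°C.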

| Variant | one-hybrid fitness for binding parS DNA |
| --- | --- |
| RCYK | 0.262 |
| HLQN | ≤ 0.2 |
| FASW | ≤ 0.2 |
| HEIY | ≤ 0.2 |
| YTNC | ≤ 0.2 |
| KRWH | ≤ 0.2 |
| TRFH | ≤ 0.2 |
| SDPF | ≤ 0.2 |
| PTIW | ≤ 0.2 |
| NLMN | ≤ 0.2 |
| TYTI | ≤ 0.2 |
| WAGE | ≤ 0.2 |
| HPGG | ≤ 0.2 |
| CGYC | ≤ 0.2 |
| PLNN | ≤ 0.2 |
| HVCT | ≤ 0.2 |
| RYKV | ≤ 0.2 |
| CSKH | ≤ 0.2 |
| RCVT | 0.843 |
| RGYY | ≤ 0.2 |
| PGRW | ≤ 0.2 |
| ETTA | ≤ 0.2 |
| AEFG | ≤ 0.2 |
| GNFG | ≤ 0.2 |
| MQSV | ≤ 0.2 |

| Variant | one-hybrid fitness for binding parS DNA |
| --- | --- |
| QHRE | ≤ 0.2 |
| EWST | ≤ 0.2 |
| PQVG | ≤ 0.2 |
| LSHS | ≤ 0.2 |
| LRYM | ≤ 0.2 |
| PSLE | ≤ 0.2 |
| DTDW | ≤ 0.2 |
| SAVG | ≤ 0.2 |
| GHTA | ≤ 0.2 |
| NRIT | ≤ 0.2 |
| QTAW | ≤ 0.2 |
| TDYT | 0.223 |
| MITC | ≤ 0.2 |
| HRPD | ≤ 0.2 |
| EPTE | ≤ 0.2 |
| SWKL | ≤ 0.2 |
| TPNE | ≤ 0.2 |
| SMAA | ≤ 0.2 |
| VADE | ≤ 0.2 |
| QDVE | ≤ 0.2 |
| QDYS | ≤ 0.2 |
| SGAK | ≤ 0.2 |
| HCVR | ≤ 0.2 |
| VWVS | ≤ 0.2 |
| VACT | ≤ 0.2 |

| Variant | one-hybrid fitness for binding parS DNA |
| --- | --- |
| TYYH | ≤ 0.2 |
| HNHV | ≤ 0.2 |
| QLKD | ≤ 0.2 |
| VNRS | ≤ 0.2 |
| VRAD | ≤ 0.2 |
| WREW | ≤ 0.2 |
| RYQP | ≤ 0.2 |
| LEFS | ≤ 0.2 |
| PNTP | ≤ 0.2 |
| SRIH | ≤ 0.2 |
| LFDE | ≤ 0.2 |
| MMIS | ≤ 0.2 |
| ELCL | ≤ 0.2 |
| IDHN | ≤ 0.2 |
| RGMV | ≤ 0.2 |
| EFPF | ≤ 0.2 |
| YQPD | ≤ 0.2 |
| YPSY | ≤ 0.2 |
| LHTC | ≤ 0.2 |
| WAWL | ≤ 0.2 |
| NRMA | ≤ 0.2 |
| QQEM | ≤ 0.2 |
| FQYS | ≤ 0.2 |
| RNVQ | ≤ 0.2 |
| DYNT | ≤ 0.2 |

| Variant | one-hybrid fitness for binding parS DNA |
| --- | --- |
| QRHA | ≤ 0.2 |
| RMIC | 0.926 |
| ICTE | ≤ 0.2 |
| KFSM | ≤ 0.2 |
| SEHA | ≤ 0.2 |
| QIVC | ≤ 0.2 |
| DRQS | ≤ 0.2 |
| SESN | ≤ 0.2 |
| STNM | ≤ 0.2 |
| SCAS | ≤ 0.2 |
| VQEP | ≤ 0.2 |
| QHLR | ≤ 0.2 |
| QHGQ | ≤ 0.2 |
| PSVC | ≤ 0.2 |
| VGHG | ≤ 0.2 |
| FLIS | ≤ 0.2 |
| FKRL | ≤ 0.2 |
| KYST | ≤ 0.2 |
| HSTT | ≤ 0.2 |
| AVWR | ≤ 0.2 |
| EHDV | ≤ 0.2 |
| IVNG | ≤ 0.2 |
| CIVL | ≤ 0.2 |
